In PMC6212790:
The list shows a part of the results. At the low end of the ranking the order means little.

Each sequence was assayed against T1, GST-Rok-C97-191 (UniProt O34857) (assay: protein binding microarray). Conditions: Rok is a gene silencer of Bacillus subtilis; high values mean tight binding; most listed sequences are background and not binding sites; double strand, one strand shown.
T1 sequence: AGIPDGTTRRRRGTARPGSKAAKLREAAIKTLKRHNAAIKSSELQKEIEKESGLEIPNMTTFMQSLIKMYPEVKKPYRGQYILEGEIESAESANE
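Also: rank score from −0.5 (least bound) to 0.5 (best bound).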

| Sequence | binding signal [E-score] |
| --- | --- |
| ACAGAGGC | -0.178 |
| TAACAATA | 0.292 |
| AGGTCGCG | -0.12 |
| CGTCGTAA | 0.0645 |
| AATACGGG | 0.0951 |
| ACTGGCCA | 0.0167 |
| CGCGTGGA | -0.235 |
| GGCGACCA | -0.149 |
| ATGTTGTC | -0.0124 |
| AGATACAG | -0.00756 |
| ACAGACCC | -0.142 |
| AAATATCT | 0.302 |
| ATAAGAGG | 0.0772 |
| GGGGCCAA | 0.0462 |
| ATAAGCGC | 0.113 |
| CTGTAACA | -0.00852 |
| CGCCGGCG | -0.423 |
| ATCCATAG | -0.00373 |
| ACCTTACC | -0.0191 |
| CGGCACCG | -0.268 |
| AAGCTGGG | -0.148 |
| AGACCTAA | 0.0335 |
| ACCTCTAT | -0.0671 |
| ATTGCATA | 0.108 |
| CACGATGA | -0.103 |

| Sequence | binding signal [E-score] |
| --- | --- |
| GAGGAGTA | -0.0605 |
| ACCTTGGC | -0.158 |
| TTACCAAA | 0.243 |
| CTTATGAC | 0.214 |
| AAGTCCTG | -0.0707 |
| CAACCTGC | -0.149 |
| AAATTGAC | 0.159 |
| GAAGGCTC | -0.292 |
| CTTCTTTA | -0.142 |
| AGCAGCGA | 0.0497 |
| GGCAACTA | 0.265 |
| GTGATTCA | -0.0286 |
| CTTGCATC | -0.0243 |
| CTCTCTAC | 0.064 |
| CGTATGCA | -0.0434 |
| ATCGGGGC | -0.214 |
| CCGCGCGC | -0.154 |
| CTCAAGTA | 0.25 |
| ACTAAAGG | -0.0388 |
| AGTGAGGA | -0.098 |
| CTGGCCAC | -0.152 |
| CGTCGGCC | -0.242 |
| ACTCGATG | 0.0705 |
| GTGTAGCA | 0.175 |
| TACTTGAA | -0.0128 |

| Sequence | binding signal [E-score] |
| --- | --- |
| TATGCGGA | -0.00837 |
| CGGCACCA | -0.137 |
| AGCCGAGC | -0.319 |
| TCATCAGA | 0.00127 |
| TATCGTAA | 0.284 |
| ACCTATAT | 0.311 |
| CACGAGCG | -0.277 |
| AGCGGCTA | -0.035 |
| ACGCTTAG | -0.236 |
| ATCCCAGA | -0.0692 |
| GACCCTGC | -0.165 |
| CTTAATAA | 0.0347 |
| TAGTGGAA | 0.176 |
| GCCTCGCC | -0.323 |
| GAAGAGAA | 0.00168 |
| ACGGAGAC | -0.171 |
| CAGTATAG | 0.193 |
| CACTCCCC | -0.348 |
| AGATCGTA | 0.105 |
| ACCTGAAA | -0.227 |
| AAAACCAT | -0.0016 |
| ATCCGGAT | -0.0619 |
| GTAGCGCA | 0.000708 |
| CAGCAGAA | -0.119 |
| CAAGTGGA | -0.172 |

| Sequence | binding signal [E-score] |
| --- | --- |
| CGGAACGC | -0.22 |
| CAATTAAC | 0.0689 |
| ATTAATTG | 0.198 |
| AGGGCCAT | -0.00123 |
| AGGAACCT | -0.109 |
| ATAAGTAC | 0.318 |
| AGGAAAGG | -0.15 |
| GGACTGCA | -0.224 |
| ATATGTGC | 0.192 |
| AAAGTCTA | -0.0542 |
| CGTTGCGC | -0.322 |
| ATCTCCGG | 0.0557 |
| AATCTGTG | -0.0756 |
| AATAAGGG | -0.0328 |
| CACTGCCG | -0.363 |
| CAGTATAA | 0.213 |
| AACGGACT | -0.164 |
| GCGGACCC | -0.19 |
| AAGTTTGC | -0.018 |
| GAAATTCA | 0.106 |
| CACGGGCA | -0.13 |
| CCAGATGA | 0.0133 |
| TCGTATCA | -0.014 |
| TTGTCAAA | -0.0149 |
| ATGTGTCG | 0.0515 |

| Sequence | binding signal [E-score] |
| --- | --- |
| GCATGGCC | -0.274 |
| CAACTAAA | 0.234 |
| AGTGTATG | 0.285 |
| GTGTGCAA | -0.179 |
| ATGTACCA | 0.335 |
| ACTAGTAG | 0.404 |
| AGCATGCT | 0.0502 |
| ATCCTCCC | -0.0879 |
| CAGCACGC | -0.356 |
| AATTTGTC | 0.165 |
| CGAACAAA | 0.0673 |
| GGATACAC | -0.0263 |
| CCGATGGA | -0.103 |
| CAATGAAG | -0.133 |
| GATGCTAC | 0.0441 |
| GGGACCCA | -0.304 |
| TCCCTTCA | -0.284 |
| CAACGGCG | -0.252 |
| AATGAGAG | -0.145 |
| AATTCGTG | 0.0111 |
| GAAGCCTA | 0.0741 |
| ATGTTCAC | 0.122 |
| GTTCGGTA | -0.0461 |
| GCGAACAA | 0.13 |
| TGGACAAA | -0.139 |

| Sequence | binding signal [E-score] |
| --- | --- |
| CTTCCCCC | -0.267 |
| CCCCGGAA | -0.248 |
| GGGTGTCA | -0.0897 |
| CGGTGAAC | -0.0556 |
| CTGTCCAA | -0.154 |
| AACAGCGT | -0.0978 |
| CACGCACG | -0.115 |
| AGAGAGGC | -0.18 |
| ATCACACG | -0.000509 |
| AGGAGAGC | -0.179 |
| ACCCCTCC | -0.313 |
| CTCACCGA | -0.144 |
| AATAGGAT | 0.246 |
| GGCACCCA | -0.224 |
| ATCGAGAA | 0.145 |
| ACGTGGCG | -0.166 |
| CAACTAGA | 0.255 |
| AAAGGATG | -0.047 |
| AAGTAGGG | 0.267 |
| AGACCTGG | -0.167 |
| AGAAAAGC | 0.217 |
| CCGTACGC | 0.0423 |
| ACAGTGGG | -0.00225 |
| AGGAAGCA | -0.1 |
| ACGTCTCC | -0.157 |

| Sequence | binding signal [E-score] |
| --- | --- |
| GTCGCAAC | -0.112 |
| AGGACTCA | 0.0293 |
| CACCTCTA | -0.103 |
| CGAGAATC | -0.217 |
| ACAACTAG | 0.306 |
| GCAGACAC | 0.0935 |
| ACCACCCC | -0.251 |
| GAACTACA | 0.252 |
| ACGTCACC | -0.186 |
| AGCTACGG | -0.00912 |
| CAGTCTGG | -0.185 |
| AAATAAGG | 0.1 |
| CGGTAAAG | 0.0577 |
| AGATGCGA | -0.0935 |
| AGGCGGTA | -0.0681 |
| AAGGATCG | -0.00172 |
| TAGGCCAA | 0.0269 |
| CCTGCCCC | -0.308 |
| AACGATTC | 0.0496 |
| TTGCACAA | 0.0241 |
| ATCATTCA | -0.0332 |
| CAAATCTG | -0.15 |
| CTTAGAAA | 0.103 |
| CGGGTAAC | 0.0536 |
| ACGCTTCG | -0.153 |

| Sequence | binding signal [E-score] |
| --- | --- |
| ATAAGGTC | -0.0317 |
| AGGGAAAC | -0.0931 |
| CGTGCGTA | -0.153 |
| TAAGCGTA | 0.0574 |
| CAGAAACA | 0.099 |
| GTGCAACA | -0.231 |
| ACCCACGA | -0.0397 |
| AAAGCGAA | -0.078 |
| AGGGGATG | -0.11 |
| TATAGAAA | 0.397 |
| AGTCCCGC | -0.272 |
| CAGCGTAG | -0.0938 |
| AAACAGCA | 0.0841 |
| AGCGTTAA | 0.0388 |
| AGCGCCTA | -0.115 |
| GATAGTGA | 0.12 |
| ATTCATCA | 0.0772 |
| AATATACG | 0.225 |
| ACATGACG | 0.172 |
| ATTATAAT | 0.313 |
| GACATCAA | -0.0521 |
| AATTACGA | 0.315 |
| AAAGAAGT | -0.00409 |
| AAAGAAAG | 0.153 |
| AAGCCAGA | -0.258 |

| Sequence | binding signal [E-score] |
| --- | --- |
| AAGTCGGC | -0.116 |
| AACTGGCC | 0.0448 |
| GGATCCCC | -0.276 |
| ATCAAACA | 0.0963 |
| CCATACGC | 0.0514 |
| AGATCGCT | 0.152 |
| ATGGGGAA | 0.0488 |
| CGTCTTGC | -0.0463 |
| AAATCGCT | 0.244 |
| TGCTGTAA | 0.0575 |
| ACTGAGAG | -0.0408 |
| AGCTGACC | -0.219 |
| AGCCTGAA | -0.0948 |
| CCAGGAGC | -0.182 |
| AGCGCGCC | -0.355 |
| AGGTACCC | -0.0909 |
| TGCGTGAA | 0.0412 |
| GATAAGTA | 0.238 |
| CAGCCGTC | -0.113 |
